This note sets out measurements from the supplement of paper PMC10126150.

Values marked as one replicate rest on one cluster of the flow cell; about a third of the high ones do not repeat.
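Further: ATP exposure 15 min at 22 °C before imaging.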

The test system of the series is ATP. Briefly: switch fluorescence ratio, 500 uM ATP over buffer (Cy3 cluster intensity, sum of 5 cycles each) (fold (ratio)); higher = stronger signal-on switching upon ATP binding; sequences stand for … in TCGTCGGCAGCGTCAGATGTGTATAAGAGACAGTTTTTTTTTTTTTTTTTTTTTTTTT…TC. Conditions: aptamer strand: ATP DNA aptamer (quencher-CACCTGGGGGAGTATTGCGGAGGAAGG + anchor), 100 nM annealed; ATP concentration: 500 uM; one replicate. In outline: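 Clusters carrying Cy3-labelled switching strands on a modified Illumina MiSeq flow-cell were annealed to 100 nM quencher-labelled ATP aptamer and imaged in selection buffer. They were imaged again after 15 min with 500 uM ATP at 22 °C, over five buffer/ATP cycles with NaOH stripping and re-annealing in between. For each cluster, the fluorescence ratio is the summed Cy3 intensity of the target cycles divided by that of the buffer cycles, averaged per switch-domain sequence. Clusters outside 100-1000 RFU were left out.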
Take GCTTTGTAA: the switch fluorescence ratio is 0.955.
As for TAATTACGAC, the figure is 1.1; as for TATCAGGTA, 0.993.
As for GTAGAAGGCC, the figure is 1.03; as for TTTGGGAAG, 1.02.
As for GCGTTGGCGT, the figure is 1; as for AGCAACTCTG, 1.06; as for TGGAACTGAA, 0.977.
GCAGGAGGTG: the switch fluorescence ratio came out at 1.07.
Consider CCAGTAAGGG, for which the switch fluorescence ratio is 1.03.
As for TAACGTAGAG, the figure is 1.04; as for ACTTCTTTTA, 1.02; as for TTCAGTCATT, 1.
ATGCGTAAT: the switch fluorescence ratio was 1.06.
To CGAAAAGTTA belongs 0.992; to CGCCACTGAC, 1.67.
As for GCCTTGAACG, the figure is 1.04.
Consider GACAGTATAG, for which the switch fluorescence ratio worked out at 0.987.
Turning to GAAGAGCTGA, the switch fluorescence ratio was 0.986.
Take AAGAGAGGGC: the switch fluorescence ratio came out at 0.969.
To CCGGGGCTTA belongs 1.44.
As for TTAATTTCTC, the figure is 1.02; as for GTGCGTCCAA, 0.967.
To GCAGACAGCG belongs 1.06; to TTTTTGGTT, 1.03.
Regarding TATAGAAATC, the switch fluorescence ratio turned out to be 0.994.
To CAAGAGTCCT belongs 1; to ACCCTTGCAA, 2.25.
To CAATAAGTAC belongs 1.49; to TAGTCATGA, 1.06; to TCAGACGGGG, 1.02.
For GTGGTGCTCT, the switch fluorescence ratio was 1.03.
As to AATTGGTGGC, the switch fluorescence ratio came to 0.995.
On to ATTGTCACGC, for which the switch fluorescence ratio turned out to be 1.08.
As for GTTGAATCCG, the figure is 1.03; as for ACCCTTTTC, 1.1; as for GGTCGCCGG, 1.01.
As for GAGGGCCACG, the switch fluorescence ratio was 1.05.
Take GCTGGTTTTA: the switch fluorescence ratio came out at 0.989.
Take CACATTGGGG: the switch fluorescence ratio came out at 0.98.
With GAGTCAACAT, the switch fluorescence ratio was determined as 1.
Regarding AGATGGTGCT, the switch fluorescence ratio came out at 0.976.
For AATCGAGATA, the switch fluorescence ratio was 0.994.
As for GATTGGTAGC, the figure is 0.999; as for CGTTGTCA, 1.01.
Consider TGATGAATTT, for which the switch fluorescence ratio turned out to be 0.958.
AGACATCCGG: the switch fluorescence ratio worked out at 1.07.
To TGGCGCGCG belongs 0.906.
Consider TGGCGCGGTA, for which the switch fluorescence ratio amounted to 1.07.
As for ATTGAAGAGC, the figure is 0.922; as for ATGGGATACA, 1.01.
CTGGCAGGTG: the switch fluorescence ratio worked out at 4.3.
As for CATTAGACTC, the figure is 0.993.
To TCCATTATA belongs 0.987.
As for TGCAGCGAGC, the figure is 1.26; as for CTGCGTACGA, 1.22; as for TCCAGCGCCC, 1.04.
With ACCCGCACGT, the switch fluorescence ratio was determined as 1.79.
As for TTTACTGCAG, the figure is 0.959; as for GCTTAGTCTT, 0.96.
As for CAGTACTGAG, the switch fluorescence ratio is 0.998.
As for TGATGCGTGC, the figure is 1.03; as for TCAAAGTACA, 1.16; as for ACGGTGAAAT, 1.03.
As for AACATCATGT, the figure is 1.01; as for AGGCTACGTT, 1.03.
As for ACAGATCCAA, the figure is 0.996; as for ACAATTACTG, 1.01.
For the sequence GCCCACAGAT, the switch fluorescence ratio stood at 1.02.
As for CTCAGTTGAT, the figure is 1.06; as for AATCGATGCT, 0.976; as for CAATACTTCG, 1.18.
As for GATGAAAA, the figure is 1.01.
Consider TCCGGGCGAA, for which the switch fluorescence ratio was 1.09.
To GTCATCCGTG belongs 1.01; to TCGACGAGAG, 1; to GGTTATGGAC, 0.962.
For ATATGGGGCA, the switch fluorescence ratio stood at 0.995.
To CGGTAGTGGG belongs 1.01; to CATCCAACTG, 0.928; to GCCAGGGTTC, 1.02.
As for TATATTCGAA, the switch fluorescence ratio worked out at 1.
To AAGTGACCTA belongs 1.09.
As for TTTCACGCCT, the figure is 1.23; as for GAGCGGAGGT, 0.984.
For GATGTTACT, the switch fluorescence ratio came to 0.983.
In the case of CAATAGTAAT, the switch fluorescence ratio worked out at 1.05.
To GGGGGGCTG belongs 0.998.
As for GCAGCATGTT, the figure is 1.12.
Consider CCGTTAGTCA, for which the switch fluorescence ratio was determined as 1.13.
To TATAGAGAAA belongs 0.989; to GACTGTCTGA, 1.
To CATAATGCCG belongs 0.979; to CAAATGGCCT, 1.07.
Take ATCTATAAAG: the switch fluorescence ratio was determined as 1.01.
With AGAATTGGAA, the switch fluorescence ratio turned out to be 0.999.
To CGCTGATAAA belongs 1.01; to GTGTACGGGC, 0.982; to AGGATGTTA, 0.958.
To TCGTTATACC belongs 1.14.
As for GGGGTACTG, the figure is 0.97.
Regarding ACTTTTTTCA, the switch fluorescence ratio came to 0.992.
To TTTCTTACAG belongs 1.01.
To TTCCATCACT belongs 1.09; to ATAAGGATTA, 0.996.
As for GCTAATGATA, the figure is 0.994; as for CGTCACCCCC, 2.31.
Consider CGATGCAAGG, for which the switch fluorescence ratio is 2.72.
To GATGCTCATC belongs 0.992; to TTTCTGAAGT, 1.01; to CGGATGGAT, 1.01.
As for ATGTGCGCGT, the figure is 1.01.
To TTCCTTATAC belongs 1.99; to GCTAATGGAC, 1.03.
Take CTCTAGACCC: the switch fluorescence ratio was 1.14.
To GCCCAATATG belongs 1.16; to ATCAGGTCCT, 0.998; to TATGTGCTTA, 0.985.
As for CCAGCGTT, the figure is 1.04.
To GACATTATAA belongs 1.02; to GAGCCGGTAG, 1.02.
